Screen size: about 360,000 compounds; about 6,000 (1.7%) were called active. The inconclusive results got no clear call from the source; some entries with a clear call stand among them for comparison. Calls follow the shape of the dose curve; as a rule, active = well fitted cell-killing curve with a large enough effect; inconclusive = small, poorly fitted or top-dose-only effect, or effect the other way; inactive = flat fitted curve, though single readings scatter. No potency is given beside an inconclusive call; the fits are too rough.
Test: qHTS for induction of synthetic lethality in tumor cells producing 2HG: qHTS for the HT-1080-NT fibrosarcoma cell line;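 also: NT is the 2HG producing partner of a matched IDH1 knockdown line; nearly all actives have a fitted effect of over 55% in size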;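 as to activity, negative = less viability: 0% = DMSO-treated cells and -100% = media-only wells without cells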
Details: HT-1080-NT fibrosarcoma viability, CellTiter-Glo ATP luminescence, 48 h; activity, negative = less viability: at 46.1 µM (top of the series) unless noted
Method in brief: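 750 cells/well, RPMI + 5% FBS; 2 h settle, compound pin-transfer, 48 h at 37 degrees C. CellTiter-Glo 10 min RT, luminescence. Normalized to DMSO and media-only wells.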
Potency is read from the fitted curve at half-maximal effect; tags tell the direction and shape of the fitted curve.

Structure (SMILES)	Potency	activity, negative = less viability
COC(=O)c1c(NC(=O)Nc2ccc(Cl)cc2)sc(C)c1C	inconclusive [cytotoxic, single point]	–
Cc1ccccc1NS(=O)(=O)c1cc2c3c(c1)CC(=O)N3CCC2	inactive	–
O=C1c2ccccc2NC(c2cccc([N+](=O)[O-])c2)N1O (stereo not given)	inconclusive [cytotoxic, partial curve]	–
CN(CC(=O)Nc1ccc(Cl)c(C(F)(F)F)c1)C(=O)C1CCN(C(=O)c2ccc(Cl)cc2)CC1	inconclusive [cytotoxic, single point]	–
COCCOC(=O)C1=C(C)N=C2SCCC(=O)N2C1c1cccc(Br)c1 (stereo not given)	inactive	–
Clc1cccc(Cl)c1/C=N/Nc1c(Cl)cncc1Cl	active: 2.31 µM	–
CCC(C)Cn1cnc2c(Sc3c([N+](=O)[O-])ncn3C)nc(N)nc21 (stereo not given)	inconclusive [cytotoxic, partial curve]	–
COc1ccc2c(c1)c1nc3ccccc3nc1n2CC(=O)OC(C)C	inconclusive [cytotoxic, single point]	–
Cc1ccccc1N=C1NN=C(c2ccccc2F)CS1	inconclusive [cytotoxic, single point]	–
COc1ccc(N2CC(C(=O)OCC(=O)Nc3ccccc3C)CC2=O)cc1 (stereo not given)	inconclusive [rising, partial curve]	–
COc1ccc(NC(=O)CNC(=O)C2CCCCC2)cc1	inconclusive [rising, single point]	–
CCC(CC)C(=O)c1c[nH]c(C(=O)NCCc2ccccn2)c1	inconclusive [rising, partial curve]	–
Cc1nonc1OCC(C)(COc1nonc1C)NC(=O)c1ccc(Cl)cc1	inconclusive [cytotoxic, single point]	–
CCc1ccc(-c2cnc3nc[nH]c(=O)c3n2)cc1	inactive	–
CSC1=NC(C)(C)C=C(/C=C/c2ccc(Cl)cc2Cl)N1	inconclusive [cytotoxic, single point]	–
CC(=O)N1CC(=O)N=C1SCC(=O)Nc1nc(C)c(-c2ccccc2)s1	inconclusive [cytotoxic, single point]	–
COc1cc(Cn2c3ccc(NC(=O)CCc4ccccc4)cc3c(=O)n2C)ccc1F	inconclusive [cytotoxic, full curve]	–
Cc1cc(C)c(O)c(-c2cc(C(=O)Nc3cccnc3)[nH]n2)c1	inconclusive [cytotoxic, single point]	–
OCCCNc1cc(-c2ccccc2)nc2cc(-c3ccc(F)cc3)nn12	inconclusive [cytotoxic, single point]	–
Cc1ccc(/C=C/C(=O)N2CCN(S(=O)(=O)c3ccc(C)c(C)c3)CC2)o1	inconclusive [cytotoxic, partial curve, poor fit]	–
CC(C)CNC(=O)C1(C)CCCCCN1Cc1ccccc1-c1ccccc1 (stereo not given)	inconclusive [cytotoxic, single point]	–
CCOC(=O)N/N=C\c1ccc([N+](=O)[O-])s1	inactive	–
CCOC(=O)C(C(=O)OCC)C(Nc1ccccc1)c1ccccc1 (stereo not given)	inconclusive [cytotoxic, single point]	–
Cn1c2ccccc2c2nnc(SCC(=O)Nc3cccc(O)c3)nc21	inactive	–

Structure (SMILES)	Potency	activity, negative = less viability
CC(C)N1CCc2c(sc(NC(=O)c3ccc(S(=O)(=O)N4CCc5ccccc54)cc3)c2C(N)=O)C1	inconclusive [cytotoxic, single point]	–
Cc1cc(=O)oc2c3c4c(cc12)OCCN4CCC3	inactive	–
CCOC1=C2CN(S(=O)(=O)c3ccc(Cl)cc3)[C@H](c3ccccc3)C[C@@H]2N(S(=O)(=O)c2ccc(C)cc2)[C@H](c2ccccc2)C1	inactive	–
COc1ccccc1C(=O)N/C(=C/c1cccc([N+](=O)[O-])c1)C(=O)Nc1cccc(C(=O)O)c1	inactive	–
COc1ccc(-c2oc(=O)c3cc(OC)c(OC)cc3c2-c2ccc3c(c2)OCO3)cc1	inactive	–
COc1ccc(CNCCC(c2ccccc2)c2ccc3c(c2)OCO3)cc1 (stereo not given)	inconclusive [cytotoxic, single point]	–
O=C(/C=C/c1ccccc1Cl)c1ccc[nH]1	inconclusive [cytotoxic, single point]	–
Cn1c(/C=C/c2ccc([N+](=O)[O-])o2)nc2ccccc2c1=O	inconclusive [cytotoxic, single point]	–
COc1ccccc1-c1c(C)nn2c(N3CCCCCC3)cc(C)nc12	inconclusive [cytotoxic, single point]	–
OCc1ccccc1-c1cnc2cccnn12	–	inconclusive: 10.9%
CC(Oc1cccc(Br)c1)C(=O)NNC(=O)c1ccccn1 (stereo not given)	inconclusive [cytotoxic, partial curve]	–
CCCCC[C@@H](C)N1C[C@@H](COCc2ccccc2)Oc2cc(N3CCC[C@H]3C(N)=O)ccc2S1(=O)=O	inconclusive [cytotoxic, single point]	–
CCC(CC)C(=O)N(C)c1c(C)nc2c(OCC=C(C)C)cccn12	inconclusive [cytotoxic, single point]	–
CC(C)Oc1ccc(CNC(=O)CC(c2ccccc2)c2cc(Cl)ccc2O)cc1 (stereo not given)	inconclusive [cytotoxic, single point]	–
N#C/C(=C\c1cccc([N+](=O)[O-])c1)C(=O)NCc1ccc(Cl)cc1	inconclusive [cytotoxic, single point]	–
O=C(C[C@@H]1C[C@H]2c3cc(NC(=O)c4cccnc4)ccc3O[C@H]2[C@H](CO)O1)NCc1ccc(Oc2ccccc2)cc1	inconclusive [cytotoxic, single point]	–
COC(=O)C(C)n1nnc2sc(-c3ccccc3)cc2c1=O (stereo not given)	inconclusive [rising, partial curve, poor fit]	–
CCCCCCCCC(=O)N/N=C/c1ccccn1	inconclusive [cytotoxic, single point]	–
CCOC(=O)c1c(NC(=O)C2COc3ccccc3O2)sc2c1CC(C)(C)NC2(C)C (stereo not given)	inconclusive [cytotoxic, single point]	–
O=C1CSC(=S)N1N=Cc1ccc(Cl)cc1Cl	inactive	–
COc1ccccc1NS(=O)(=O)c1ccc(O)c(NC(=S)NCC2CCCO2)c1 (stereo not given)	inactive	–
CCNC(=O)NS(=O)(=O)c1cnccc1Nc1cccc(Cl)c1	inactive	–
CC(C)CNC(=O)c1ccc(NC(=O)c2ccccc2[N+](=O)[O-])cc1	inactive	–
Oc1c(Cl)cc(Cl)c(Cl)c1Cc1c(O)c(Cl)cc(Cl)c1Cl	active: 5.8 µM	–

Structure (SMILES)	Potency	activity, negative = less viability
Cc1cc(O)c(/C=N/Nc2cccc(Cl)c2)c(=O)o1	inconclusive [cytotoxic, partial curve]	–
O=C(Nc1ccc(Nc2ccccc2)cc1)Nc1ccccc1Cl	inconclusive [cytotoxic, single point]	–
CCOC(=O)/C(C#N)=C1\Nc2ccccc2N=C1N(CC(C)C)CC(C)C	inconclusive [cytotoxic, single point]	–
Cc1ccc2nc(C)c(C(=O)NN=C3CCN(C)CC3)n2c1	active: 5.17 µM	–
CCOC(=O)C(C(=O)OCC)C(Nc1ccc(Br)cc1)c1ccccc1 (stereo not given)	inconclusive [cytotoxic, full curve]	–
COc1ccc(OC)c(S(=O)(=O)N2c3ccccc3CC2C)c1 (stereo not given)	inconclusive [cytotoxic, single point]	–
COc1ccc(-c2cc(C(=O)NCCN3CCOCC3)c3ccccc3n2)cc1OC	inactive	–
CC(C)c1ccc(NC2CCCN(C(=O)c3ccc(N4CCOCC4)cc3)C2)cc1 (stereo not given)	inactive	–
CCCCCOC(=O)C1=C(C)Nc2nnnn2C1c1ccccc1Cl (stereo not given)	active: 13 µM	–
CC(C)(C)NC(=O)C(C1CC1)n1c(=O)c(-c2cc3ccccc3[nH]2)nc2ccccc21 (stereo not given)	inconclusive [cytotoxic, single point]	–
CC(C)Oc1ccc(S(=O)(=O)N2CCOCC2)cc1NC(=O)c1cc([N+](=O)[O-])ccc1N1CCOCC1	inactive	–
O=C(CCS(=O)(=O)c1ccccc1)Nc1ncc([N+](=O)[O-])s1	active: 20.6 µM	–
CCN(c1ccccc1)S(=O)(=O)c1ccc(C(=O)N(CCCN(C)C)c2nc3cc4c(cc3s2)OCO4)cc1	inconclusive [cytotoxic, single point]	–
CCOc1ccc2nc(N3CCCC(C(=O)NC4CCCC4)C3)sc2c1 (stereo not given)	inconclusive [rising, single point]	–
O=[N+]([O-])c1ccc(-c2ccc(S(=O)(=O)N3CCOCC3)cc2)cc1	–	inconclusive: 31.6%
CC(C)(C)OC(=O)NCCCCCc1cn([C@@H](CO)C(=O)NCCCCCCCCCCC(=O)N2CCN(C(=O)OC(C)(C)C)CC2)nn1	active: 16.4 µM	–
O=C(C[n+]1ccc2ccccc2c1)c1cccc2ccccc12	inconclusive [cytotoxic, single point]	–
Fc1cccc(Cc2c(-c3ccco3)nc3ccc(Cl)cn23)c1	inconclusive [cytotoxic, single point]	–
Cc1ccc2c(c1)c1c3n2CCN(C(=O)CCl)C3CCC1 (stereo not given)	active: 16.4 µM	–
Cc1ccc(C(=O)c2cc([N+](=O)[O-])ccc2N2CCCCC2)cc1	active: 0.82 µM	–
CCN(CC)c1nc(C(F)(F)F)nc2c1nnn2Cc1ccccc1	inactive	–
COc1cccc(C(=O)Nn2cnnc2)c1OC	inactive	–

— PubChem BioAssay AID686970 (National Center for Advancing Translational Sciences (NCATS), 2013)
